± gives the standard error. This sample is rich in variants without activity.
B1: glmS ribozyme (parent)
chain: AUAAAAGCGCCAGAACUACAGAAAUGUAGUUGACGAGGAGGAGGUUUAUCGAAUUUUCGGCGGAUGCCUCCAAA

What was measured:
Settings in all cases: with glucosamine-6-phosphate
glucosamine-6-phosphate [1] = variants of: B1; test: self-cleavage kobs at 640 uM GlcN6P; higher = faster cleavage; RNA array
Outline: (§1)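 Glucosamine-6-phosphate (40 μM to 10 mM) in HEPES/KCl/Mg(OAc)2 buffer was flowed over sequenced MiSeq chips, and tiles were imaged over ~14 h. Barcoded ribozyme variants there had been transcribed in situ by E. coli RNA polymerase and were tracked through a hybridised Cy3 probe at 37 °C. One- or two-exponential decay fits to per-tile medians, normalised to baseline and to non-cleaving reference variants, gave kobs. kcat and KM came from weighted Michaelis–Menten fits across concentrations.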

glucosamine-6-phosphate [2] = variants of: B1; test: self-cleavage kobs at 2500 uM GlcN6P; higher = faster cleavage; RNA array
Outline: as §1

glucosamine-6-phosphate [3] = variants of: B1; test: self-cleavage kobs at 10000 uM GlcN6P; higher = faster cleavage; RNA array
Outline: as §1

glucosamine-6-phosphate [4] = variants of: B1; test: self-cleavage kobs at 160 uM GlcN6P; higher = faster cleavage; RNA array
Outline: as §1

Variant | self-cleavage kobs at 640 uM GlcN6P (glucosamine-6-phosphate [1]) | self-cleavage kobs at 2500 uM GlcN6P (glucosamine-6-phosphate [2]) | self-cleavage kobs at 10000 uM GlcN6P (glucosamine-6-phosphate [3]) | self-cleavage kobs at 160 uM GlcN6P (glucosamine-6-phosphate [4])
U47A C58U U65C | < 1e-05 s⁻¹ |  |  | 
A39U G41U G44U C71U | < 1e-05 s⁻¹ |  |  | 
G41C G43A C70U | < 1e-05 s⁻¹ | < 1e-05 s⁻¹ |  | 
G41C C71U | 3.67e-05 ± 8.3e-06 s⁻¹ | 0.000119 ± 1.8e-05 s⁻¹ | 0.00016 ± 1.7e-05 s⁻¹ | 
G40U U46C U55G | 0.000194 ± 6.6e-05 s⁻¹ |  |  | 
U45C G51U | < 1e-05 s⁻¹ | < 1e-05 s⁻¹ |  | 
A42C C67U C71G | < 1e-05 s⁻¹ |  |  | 
G41C U49C G60U C67A | < 1e-05 s⁻¹ |  |  | 
G41U A52G C58U C61G | < 1e-05 s⁻¹ |  |  | 
A39U G40A C67A | 0.000124 ± 3.1e-05 s⁻¹ | 0.000245 ± 6.5e-05 s⁻¹ | 0.000247 ± 5e-05 s⁻¹ | 
A42U U46G | 2.81e-05 ± 1.4e-05 s⁻¹ | 3.86e-05 ± 1.2e-05 s⁻¹ | 5.41e-05 ± 8.3e-06 s⁻¹ | 
G43U C70G C71A | < 1e-05 s⁻¹ | < 1e-05 s⁻¹ |  | 
U46A G51C A52G | < 1e-05 s⁻¹ | < 1e-05 s⁻¹ |  | < 1e-05 s⁻¹
A39G G63C | < 1e-05 s⁻¹ |  | < 1e-05 s⁻¹ | 
A48G A52C U55C | < 1e-05 s⁻¹ |  |  | < 1e-05 s⁻¹
A42C A52U A64G | < 1e-05 s⁻¹ | < 1e-05 s⁻¹ |  | 
U46C U55C U57G A64G C68U | < 1e-05 s⁻¹ | < 1e-05 s⁻¹ |  | < 1e-05 s⁻¹
A39C C58U U69G | < 1e-05 s⁻¹ | < 1e-05 s⁻¹ |  | 
G44U G51A U65A | < 1e-05 s⁻¹ | < 1e-05 s⁻¹ | < 1e-05 s⁻¹ | 

Variant | self-cleavage kobs at 640 uM GlcN6P (glucosamine-6-phosphate [1]) | self-cleavage kobs at 2500 uM GlcN6P (glucosamine-6-phosphate [2]) | self-cleavage kobs at 10000 uM GlcN6P (glucosamine-6-phosphate [3]) | self-cleavage kobs at 160 uM GlcN6P (glucosamine-6-phosphate [4])
G40A C50G A52U U56G | < 1e-05 s⁻¹ |  |  | 
A39C U47A G60U G62A | < 1e-05 s⁻¹ | < 1e-05 s⁻¹ |  | 
G43U U49G A53U | < 1e-05 s⁻¹ | < 1e-05 s⁻¹ |  | 
G41U A42C G66U | < 1e-05 s⁻¹ | < 1e-05 s⁻¹ |  | 
A39G A53U U56G G62A | < 1e-05 s⁻¹ |  |  | 
G43U U47C G66U | < 1e-05 s⁻¹ |  |  | 
G43U C50G | < 1e-05 s⁻¹ |  | < 1e-05 s⁻¹ | 
G43U U46C U56G | < 1e-05 s⁻¹ | < 1e-05 s⁻¹ |  | 
A42C G43C C70U | < 1e-05 s⁻¹ |  |  | 
G43C U55C | < 1e-05 s⁻¹ | < 1e-05 s⁻¹ | < 1e-05 s⁻¹ | < 1e-05 s⁻¹
G40U A48C C50G A52U U55A | < 1e-05 s⁻¹ | < 1e-05 s⁻¹ |  | 
G44C U56A G62U | < 1e-05 s⁻¹ |  | < 1e-05 s⁻¹ | 
A39C C61U | < 1e-05 s⁻¹ | < 1e-05 s⁻¹ |  | < 1e-05 s⁻¹
G40U G51C | < 1e-05 s⁻¹ | < 1e-05 s⁻¹ | < 1e-05 s⁻¹ | 
U46A U47C C70A | 9.01e-05 ± 2.2e-05 s⁻¹ | 0.000206 ± 3.7e-05 s⁻¹ |  | 
G44A U56A | 4.93e-05 ± 1.6e-05 s⁻¹ |  |  | 
A42G A48C | 9.68e-05 ± 2.1e-05 s⁻¹ | 0.000276 ± 8.7e-05 s⁻¹ | 0.000506 ± 7.8e-05 s⁻¹ | 
G40A G44U C61A | < 1e-05 s⁻¹ |  |  | < 1e-05 s⁻¹
G40C A42G A53C | 0.00018 ± 6.6e-05 s⁻¹ | 0.000564 ± 0.00013 s⁻¹ |  | 5.62e-05 ± 1.9e-05 s⁻¹

Variant | self-cleavage kobs at 640 uM GlcN6P (glucosamine-6-phosphate [1]) | self-cleavage kobs at 2500 uM GlcN6P (glucosamine-6-phosphate [2]) | self-cleavage kobs at 10000 uM GlcN6P (glucosamine-6-phosphate [3]) | self-cleavage kobs at 160 uM GlcN6P (glucosamine-6-phosphate [4])
A42G C50G G51U U56G | < 1e-05 s⁻¹ |  |  | 
U45G C61G G63A | < 1e-05 s⁻¹ | < 1e-05 s⁻¹ |  | 
G40U G43U G51C U65C | < 1e-05 s⁻¹ |  |  | 
A42U G44C A52C U57G U65A U69C | < 1e-05 s⁻¹ | < 1e-05 s⁻¹ |  | 
G40A G43U A53U | < 1e-05 s⁻¹ |  |  | < 1e-05 s⁻¹
G40U G51A U65A | < 1e-05 s⁻¹ |  |  | 
A48G C67U C70U | < 1e-05 s⁻¹ |  |  | 
A39U C58A G59U | < 1e-05 s⁻¹ | < 1e-05 s⁻¹ |  | 
A39U U49C G66U | < 1e-05 s⁻¹ | < 1e-05 s⁻¹ |  | 
A42G C58A | 9.53e-05 ± 3.4e-05 s⁻¹ | 0.000279 ± 0.00013 s⁻¹ | 0.000379 ± 9.4e-05 s⁻¹ | 
G44A C58G C70U C71G | < 1e-05 s⁻¹ |  |  | 
A39U A52G | 0.000134 ± 1.3e-05 s⁻¹ | 0.000345 ± 5.5e-05 s⁻¹ | 0.00078 ± 5.8e-05 s⁻¹ | 5.2e-05 ± 1.4e-05 s⁻¹
A39G G43A G63U | < 1e-05 s⁻¹ |  |  | 
U46A U47A A48C C67U C70G | < 1e-05 s⁻¹ | < 1e-05 s⁻¹ |  | < 1e-05 s⁻¹
G41U G43A C50A A53U U57C A64U U65A | < 1e-05 s⁻¹ | < 1e-05 s⁻¹ | < 1e-05 s⁻¹ | 
G43C U55A G59C | < 1e-05 s⁻¹ | < 1e-05 s⁻¹ |  | 
U47G C68A | 0.000121 ± 2.4e-05 s⁻¹ | 9.07e-05 ± 1.6e-05 s⁻¹ | 3.58e-05 ± 1.2e-05 s⁻¹ | 4.97e-05 ± 2e-05 s⁻¹
G43C G60A | < 1e-05 s⁻¹ | < 1e-05 s⁻¹ | < 1e-05 s⁻¹ | < 1e-05 s⁻¹
